According to the supplement of paper PMC4723716:
± gives the uncertainty stated by the source. In all, about 9,900 compounds were measured (“viability index relative to DMSO control”: median about 1, lowest 2% from about 0.85 on). This is one part of the list.

System: Plasmodium falciparum NF54 stage V gametocytes
Experiment: viability index relative to DMSO control (fraction); higher = less gametocyte killing
Conditions: 2.5 µM, library set: Broad Institute DOS, incubation time: 72 h
Outline: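 Compound at 2.5 µM was incubated for 72 hr at 37°C under low oxygen with P. falciparum NF54 stage V gametocytes (0.75% gametocytemia, 1.25% hematocrit, 10 µl, serum-free screening medium) in 1,536-well plates. Staining used 3 µl of 2.5 µM MitoTracker Red CMXRos plus 0.13% saponin for one to two hours, and red particles of 20–70 µm2 were counted in one imaged field per well. Each viability index is that count relative to the plate mean of solvent-only wells.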

Row | SMILES | viability index
1 | CS(=O)(=O)Nc1ccc2c(c1)[C@H]1C[C@@H](CC(=O)NCCc3ccccc3)O[C@@H](CO)[C@H]1O2 | 1.02 ± 0.11
2 | Cc1ccc(S(=O)(=O)N(C)C[C@H]2Oc3c(NS(C)(=O)=O)cccc3C(=O)N([C@@H](C)CO)C[C@@H]2C)cc1 | 1.01 ± 0.067
3 | CC(C)N(C[C@@H]1[C@@H](c2ccccc2)[C@@H](CO)N1S(C)(=O)=O)C(=O)CN(C)C | 1.016 ± 0.006
4 | CCCC#Cc1ccc([C@@H]2[C@H]3CN(C(=O)Nc4cccc(F)c4)CC(=O)N3[C@H]2CO)cc1 | 1.04 ± 0.031
5 | O=C(C[C@H]1CC[C@@H]2[C@H](COC[C@@H](O)CN2Cc2ccc3c(c2)OCO3)O1)N1CCCCC1 | 1.0068 ± 0.00093
6 | COC(=O)C[C@H]1CC[C@@H]2[C@@H](COc3ccc(NS(=O)(=O)c4ccc(C)cc4)cc3C(=O)N2C)O1 | 1.1 ± 0.045
7 | CCCNC(=O)N1CC2(C1)[C@H](c1ccccc1)[C@H](CO)N2CC1CCOCC1 | 1.04 ± 0.053
8 | CCCNC(=O)N1C[C@]2(CN(Cc3cccnc3)C2)c2c([C@H]1CO)n(C)c1cc(OC)ccc21 | 1.03 ± 0.2
9 | CO[C@H](CN(C)CC1CCOCC1)[C@H](C)CN(C(=O)Nc1ccc(F)cc1)[C@@H](C)CO | 1.028 ± 0.0033
10 | COc1ccc2c3c([nH]c2c1)[C@H](CO)N(Cc1cccnc1)C[C@]31CCN(CC1)C(=O)CN(C)C | 0.93 ± 0.046
11 | Cc1noc(C)c1NC(=O)N(C)C[C@H]1Oc2c(NC(=O)CCC(F)(F)F)cccc2C(=O)N([C@H](C)CO)C[C@@H]1C | 1.03 ± 0.066
12 | Cc1ccc(S(=O)(=O)Nc2ccc3c(c2)C(=O)N([C@H](C)CO)C[C@H](C)[C@@H](CN(C)Cc2ccc(C(F)(F)F)cc2)O3)cc1 | 0.937 ± 0.055
13 | C[C@@H]1CN([C@H](C)CO)C(=O)Cc2cc(NC(=O)Cn3cnnn3)ccc2O[C@@H]1CN(C)S(=O)(=O)c1ccc(Cl)cc1 | 1.08 ± 0.087
14 | C[C@H]1CN([C@@H](C)CO)C(=O)c2ccccc2-c2ccccc2CO[C@H]1CN(C)C(=O)[C@@H](Cc1ccccc1)N(C)C | 1.08 ± 0.0022
15 | COc1ccc2c3c([nH]c2c1)[C@H](CO)N(C[C@]31CN(C1)C(=O)Nc1cccc(F)c1)C(=O)c1cccnc1 | 1.03 ± 0.026
16 | O=C1CNC[C@H]2[C@@H](c3ccc(-c4ccccc4F)cc3)[C@@H](CO)N12 | 0.994 ± 0.034
17 | CC(C)CC#Cc1ccc([C@@H]2[C@H]3CN(C(=O)Nc4cc(F)ccc4F)CC(=O)N3[C@H]2CO)cc1 | 1.06 ± 0.053
18 | COc1ccc(CNC(=O)C[C@H]2C[C@@H]3c4cc(N(C)C)ccc4O[C@@H]3[C@H](CO)O2)cc1 | 1.19 ± 0.035
19 | C[C@@H]1CN([C@H](C)CO)S(=O)(=O)c2ccc(C#Cc3ccccc3F)cc2O[C@@H]1CN(C)C(=O)Cc1cccnc1 | 0.983 ± 0.017
20 | CO[C@H]1CN(C)C(=O)c2cc(NC(C)=O)ccc2OC[C@@H](C)N(Cc2ccncc2)C[C@@H]1C | 1.073 ± 0.0071
21 | O=C(Nc1cccc(Cl)c1)N[C@H]1CC[C@H](CCn2cc(Cc3ccccc3)nn2)O[C@@H]1CO | 1.1 ± 0.031
22 | C[C@H](CO)N1C[C@H](C)[C@H](CN(C)S(=O)(=O)c2ccccc2C#N)OCc2ccccc2-c2c(n(C)c3ccccc23)C1=O | 1.02 ± 0.057
23 | CN(C)CC(=O)N1CC2(C1)[C@H](c1ccccc1)[C@H](CO)N2Cc1cc(F)ccc1F | 1.04 ± 0.056

Row | SMILES | viability index
24 | O=C(CN1CCOCC1)N1CC[C@@H]2[C@H]1c1cc(-c3ccccc3F)ccc1N[C@@H]2CO | 1.02 ± 0.024
25 | O=C(NC1CCCCC1)N1C[C@@H]2N[C@H](C1)[C@@H]2c1ccc(-c2ccc(F)cc2)cc1 | 1.02 ± 0.08
26 | C[C@H](CO)N1C[C@H](C)[C@H](CN(C)Cc2ccc(-c3ccccc3)cc2)Oc2c(NS(C)(=O)=O)cccc2C1=O | 0.827 ± 0.011
27 | C[C@@H]1CN([C@H](C)CO)C(=O)c2ccccc2-c2ccccc2CO[C@@H]1CN(C)Cc1cccnc1 | 0.999 ± 0.019
28 | O=C(NC1CCCC1)N1CCCCN2[C@@H](CO)[C@H](c3ccc(-c4cccnc4)cc3)[C@@H]2C1 | 1.065 ± 0.0056
29 | O=C(NC[C@H]1[C@H](c2ccccc2)[C@H](CO)N1Cc1ccccn1)C1CCCC1 | 0.997 ± 0.059
30 | C/C=C/c1ccc([C@@H]2[C@H]3CNC[C@@H]2N3S(=O)(=O)c2cccc(F)c2)cc1 | 1.09 ± 0.036
31 | O=C(CC1CC1)N1CC(=O)N2[C@@H](CO)[C@H](c3ccc(/C=C/c4ccccc4)cc3)[C@@H]2C1 | 1.034 ± 0.0053
32 | COc1cccc(S(=O)(=O)N2CC[C@@H]3[C@@H](CO)Nc4ccc(C#Cc5cccnc5)cc4[C@@H]32)c1 | 1.15 ± 0.025
33 | C[C@H]1CN([C@@H](C)CO)C(=O)Cc2cc(N(C)C)ccc2O[C@H]1CN(C)Cc1ccc(-c2ccccc2)cc1 | 0.979 ± 0.06
34 | C[C@H]1CCCCO[C@@H](CN(C)C(=O)Cc2ccccc2)[C@@H](C)CN([C@@H](C)CO)C(=O)c2cc(NS(C)(=O)=O)ccc2O1 | 1.06 ± 0.014
35 | Cc1noc(C)c1NC(=O)N[C@H]1C=C[C@H](CC(=O)Nc2ccc(-c3ccccc3)cc2)O[C@@H]1CO | 1.02 ± 0.041
36 | CN1[C@H](CO)[C@@H]2c3ccccc3N(C(=O)C3CCCCC3)C[C@@H]21 | 1.01 ± 0.051
37 | C[C@H]1CN([C@@H](C)CO)C(=O)c2cc(NC(=O)NC3CCCCC3)ccc2O[C@@H]1CN(C)S(C)(=O)=O | 0.942 ± 0.062
38 | C[C@H]1CN([C@@H](C)CO)C(=O)c2c(c3ccccc3n2C)-c2ccccc2CO[C@@H]1CN(C)C(=O)NC1CCCCC1 | 1.04 ± 0.11
39 | COc1ccc(S(=O)(=O)Nc2ccc3c(c2)[C@@H]2C[C@H](CC(=O)N(C)C)O[C@@H](CO)[C@@H]2O3)cc1 | 1.14 ± 0.04
40 | CCC(=O)N1[C@@H]2Cn3c(cccc3=O)[C@H]1[C@@H](C(=O)NC1Cc3ccccc3C1)[C@@H]2CO | 1.05 ± 0.026
41 | C[C@@H]1CN([C@@H](C)CO)C(=O)Cc2cc(N(C)C)ccc2O[C@@H]1CN(C)Cc1ccc(-c2ccccc2)cc1 | 1.013 ± 0.0053
42 | C[C@@H]1CN([C@@H](C)CO)S(=O)(=O)c2ccc(C#CCC3CCCC3)cc2O[C@@H]1CN(C)C(=O)c1cnccn1 | 0.899 ± 0.07
43 | Cc1ccc(S(=O)(=O)N(C)C[C@H]2Oc3c(NS(C)(=O)=O)cccc3C(=O)N([C@H](C)CO)C[C@@H]2C)cc1 | 0.92 ± 0.059
44 | OC[C@H]1[C@H]2c3ccccc3NC[C@H]2N1CC1CCOCC1 | 1.03 ± 0.068
45 | CO[C@H](CN(C)Cc1ccc2c(c1)OCO2)[C@@H](C)CN(C(=O)c1ccccc1)[C@H](C)CO | 1.05 ± 0.048
46 | CO[C@H]1CN(C)C(=O)c2ccc(NC(=O)Nc3ccccc3)cc2OC[C@H](C)N(C(=O)CC2CC2)C[C@@H]1C | 1.05 ± 0.11

Row | SMILES | viability index
47 | CN1C(=O)c2cc(NC(=O)Nc3ccccc3Cl)ccc2OC[C@@H]2O[C@H](CC(=O)O)CC[C@@H]21 | 0.951 ± 0.083
48 | COc1ccc2c3c([nH]c2c1)[C@H](CO)N(Cc1ccccn1)C[C@]31CN(Cc2cccc(F)c2)C1 | 1.015 ± 0.0049
49 | Cc1noc(C)c1NC(=O)Nc1ccc2c(c1)C(=O)N([C@@H](C)CO)C[C@@H](C)[C@H](CN(C)Cc1ccc3c(c1)OCO3)OCCCC[C@@H](C)O2 | 1.09 ± 0.094
50 | CN1C(=O)c2cc(NC(=O)c3cnccn3)ccc2OC[C@@H]2O[C@H](CC(=O)N[C@@H]3CCN(Cc4ccccc4)C3)CC[C@@H]21 | 1.04 ± 0.021
51 | CC(C)(C)[S@@](=O)N1Cc2cc(C(=O)NCc3ccccn3)nc(-c3cccc(-c4ccccc4F)c3)c2[C@H]1CCO | 0.93 ± 0.015
52 | C/C=C/c1ccc2n(c1=O)C[C@H]1[C@H](CO)[C@@H](C(=O)NCc3cccc(OC)c3)N[C@@H]21.C/C=C\c1ccc2n(c1=O)C[C@H]1[C@H](CO)[C@@H](C(=O)NCc3cccc(OC)c3)N[C@@H]21 | 1.1 ± 0.064
53 | COc1cccc(NC(=O)C[C@@H]2CC[C@H]3[C@H](COc4ccc(NC(=O)C5CC5)cc4C(=O)N3C)O2)c1 | 1.14 ± 0.015
54 | C/C=C/c1ccc2c(c1)O[C@H](CN(C)C(=O)Nc1ccc(OC)cc1)[C@@H](C)CN([C@@H](C)CO)S2(=O)=O | 0.994 ± 0.072
55 | CCC(=O)N1[C@H](CO)[C@H](c2ccccc2)[C@@H]1CN(CC)C(=O)c1cccc(F)c1 | 1.04 ± 0.05
56 | O=C(C1CCC1)N1C[C@H]2[C@@H](c3ccccc31)[C@H](CO)N2C(=O)Nc1cccc(F)c1 | 0.966 ± 0.036
57 | COc1ccc(NC(=O)N[C@H]2CC[C@H](CCNC(=O)CN3CCOCC3)O[C@@H]2CO)cc1 | 0.944 ± 0.048
58 | O=C(C1CCOCC1)N1CC(=O)N2[C@H](CO)[C@@H](c3ccc(C#CCc4ccccc4)cc3)[C@H]2C1 | 1.02 ± 0.0049
59 | CN1C(=O)c2cc(NC(=O)C3CCOCC3)ccc2OC[C@H]2O[C@@H](CC(=O)NCC3CCCCC3)CC[C@@H]21 | 1.13 ± 0.071
60 | COCC(=O)NC[C@H]1[C@H](c2ccccc2)[C@@H](CO)N1C(=O)c1ccccc1 | 1.05 ± 0.02
61 | COc1ccc2c3c([nH]c2c1)[C@@H](CO)N(Cc1cc(OC)cc(OC)c1)C[C@]31CN(C1)S(=O)(=O)c1cccc(F)c1 | 0.996 ± 0.063
62 | CO[C@H](C(=O)N(C)C[C@H]1OCc2ccccc2-c2ccccc2C(=O)N([C@H](C)CO)C[C@H]1C)c1ccccc1 | 1.04 ± 0.13
63 | O=S(=O)(c1ccccc1F)N1[C@@H]2CNC[C@H]1[C@@H]2c1ccc(-c2cncnc2)cc1 | 0.963 ± 0.052
64 | CC(C)CC#Cc1ccc([C@H]2[C@@H](CO)N3C(=O)CN(S(=O)(=O)c4cccc(F)c4)C[C@H]23)cc1 | 0.956 ± 0.059
65 | CC(C)[C@@H]1COCc2cn(nn2)CC[C@H](Cc2ccc(-c3ccccc3)cc2)C(=O)N1 | 1.04 ± 0.11
66 | COc1ccc2c3c([C@H](CO)N(Cc4ccncc4)C[C@]33CN(C3)C(=O)Nc3cccc(F)c3)n(C)c2c1 | 1.03 ± 0.026
67 | CN1C(=O)c2cc(NC(=O)c3ccc(C(F)(F)F)cc3)ccc2OC[C@@H]2O[C@@H](CC(=O)NCc3ccc4c(c3)OCO4)CC[C@H]21 | 1.08 ± 0.086
68 | C[C@@H](NC(=O)C[C@@H]1C=C[C@@H](NC(=O)c2cccnc2)[C@H](CO)O1)c1ccccc1 | 1.09 ± 0.021
69 | C[C@@H]1CN([C@H](C)CO)C(=O)c2cccc(NS(=O)(=O)c3cn(C)cn3)c2O[C@H]1CN(C)Cc1ccc(Oc2ccccc2)cc1 | 0.985 ± 0.069
